viability, T/C and IC50 data for eleven molecules are collected here from PubChem BioAssay AID1963873 (Molecular Pharmacology Branch, DTP, NCI, 2024).

This assay has as its system 276233-004-R-J1-PDC KRAS spheroids with HUVEC/MSC, viability. The assay is described as follows: Anticancer human tumor 276233-004-R-J1-PDC patient-derived colon adenocarcinoma cell line growth inhibition [KRAS2]. As to conditions: for viability, T/C: stronger effect = lower value; for IC50: compound alone. An excerpt: Multicellular complex tumor spheroid response to RAS pathway inhibitors in combination with a targeted agents in patient-derived cell lines with oncogenic KRAS variants from multiple cancer types
A high-throughput screen of multi-cell type tumor spheroids was designed to identify active combinations of targeted small molecules and KRAS pathway inhibitors. Complex spheroids include a stromal component modeled by human endothelial cells (HUVEC) and fibroblasts modeled by human mesenchymal stem cells (MSCs). The concentration ranges selected for each drug and investigational agent were based upon clinically achievable concentrations if the clinical Cmax of the agent was known.
Compounds. The drugs and investigational agents: BI-3406 (NSC825286), BAY-293 (NSC824723), batoprotafib (TNO155; NSC825523), sotorasib (AMG 510; NSC818433), MRTX1257 (NSC819558), elimusertib (BAY 1895344; NSC800525), molibresib (GSK525762; NSC774829), temuterkib (LY3214996; NSC803410), venetoclax (NSC766270), alisertib (NSC759677), olaparib (NSC753686), talazoparib (NSC767125), erdafitinib (NSC781556), ipatasertib (NSC767898), cabozantinib (NSC761068), nintedanib (NSC756659), abemaciclib (NSC768073), docetaxel (NSC628503), trametinib (NSC758246), and sapanisertib (NSC764658) were obtained from the National Cancer Institute (NCI) Developmental Therapeutics Program Chemical Repository. The FDA-approved anticancer drug set is available from the Developmental Therapeutics Program. […] The stock solutions were prepared in dimethyl sulfoxide (DMSO, Sigma-Aldrich, St. Louis, MO, cat. D2650) at 800-fold the tested concentration and stored at -70 degrees C prior to their use. All drugs and investigational agents were tested over a range starting from a high concentration at or near the clinical Cmax and decreasing in half-log increments. If the clinical Cmax for an agent had not been determined, the highest concentration tested was 10 microM.
Cell Culture. All cells were maintained in an incubator at 37 degrees C and 5% CO2 with 95% humidity. The PDC lines were cultured according to standard operating procedures established by the NCI PDMR (https://pdmr.cancer.gov/sops/default.htm). Briefly, all PDCs were thawed and cultured in Matrigel-coated flasks prepared with a working solution of 1X Ham's F-12 nutrient mix, without supplementation (Invitrogen, Waltham, MA, cat. 11765054), 100 U/mL penicillin-streptomycin (Invitrogen, cat. 15140122), and 2.5% Matrigel (Corning Inc., Corning, NY, cat. 354248) for the first three passages. All PDCs were cultured in complete DMEM/F-12 media containing advanced DMEM/F-12 (Invitrogen, cat. 12634028), 4.9% defined fetal bovine serum, heat inactivated (HyClone Laboratories Inc., Logan, UT, cat. SH30070.03HI), 389 ng/mL hydrocortisone (Sigma-Aldrich, cat. H4001), 9.7 ng/mL human EGF recombinant protein (Invitrogen, cat. PHG0313), 23.4 microg/mL adenine (Sigma-Aldrich, cat. A2786), 97.3 U/mL penicillin-streptomycin (Invitrogen, cat. 15140122), 1.9 mM L-glutamine (Invitrogen, cat. 25030081), and 9.7 microM Y-27632 dihydrochloride (Tocris Bioscience, Bristol, United Kingdom, cat. 1254). The PDCs were cultured in complete DMEM/F12 media without 9.7 microM Y-27632 dihydrochloride for at least two passages prior to the screen. The established cell line HOP-62 was cultured in RPMI 1640 medium, HEPES (Invitrogen, cat. 22400105) with 10% defined fetal bovine serum (HyClone Laboratories Inc., cat. SH30070.03) and 2 mM L-glutamine (Invitrogen, cat. 25030081). The pooled donor HUVEC were cultured in endothelial cell growth medium 2 (PromoCell, Heidelberg, Germany, cat. C-22011) and the hMSC were cultured in mesenchymal stem cell growth medium 2 (PromoCell, cat. C-28009). For all experiments, HUVEC and hMSC were used at passages </=5, while the malignant cell lines were used at passages </=15. […]

The source holds more than one record for some entries. The list is limited to them. An entry can have further records. Values given together repeat one measurement in other runs, samples, wells, individuals or studies. Additions like (4×) count equal records among those shown.
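Further: cells exposed to agents for seven days before viability read.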
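Wherever viability, T/C is given: 100% = DMSO vehicle control wells and lower values mean fewer viable cells.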

For `CCN1CCN(Cc2ccc(Nc3ncc(F)c(-c4cc(F)c5nc(C)n(C(C)C)c5c4)n3)nc2)CC1`, the viability, T/C was 110 (2×), 82.2, 92.8, 98.3% (compound alone 0.00316 µM) and 107, 83.5, 87.2, 79.6, 104% (compound alone 0.0316 µM).

Take `CC(C)NCC(C(=O)N1CCN(c2ncnc3c2C(C)CC3O)CC1)c1ccc(Cl)cc1` (centres undefined): the viability, T/C is, setting by setting: (compound alone 1 µM) 71.3, 96.7, 83.3, 80.5, 67.8%; (compound alone 3.16 µM) 75.2, 73.5, 73.8, 41.3, 81.3%.

On to `COC(=O)c1ccc2c(C(=Nc3ccc(N(C)C(=O)CN4CCN(C)CC4)cc3)c3ccccc3)c(O)[nH]c2c1`, for which the viability, T/C by setting is: (compound alone 3.16 µM) 106, 116, 90.7, 93.3, 99.6%; (compound alone 10 µM) 92.7, 98.4, 111, 81.3, 101%.

As to `CC(=O)OC12COC1CC(O)C1(C)C(=O)C(O)C3=C(C)C(OC(=O)C(O)C(NC(=O)OC(C)(C)C)c4ccccc4)CC(O)(C(OC(=O)c4ccccc4)C21)C3(C)C` (centres undefined), the viability, T/C was 92.2, 75.5, 84.8, 101, 71.1% (compound alone 0.0316 µM) and 88, 86.2, 90.9, 92.3, 55% (compound alone 0.1 µM).

As for `CCNC(=O)CC1N=C(c2ccc(Cl)cc2)c2cc(OC)ccc2-n2c(C)nnc21` (centres undefined), the viability, T/C (compound alone 10 µM) is 61.3, 71, 64.3, 44.2, 70.7%.

On to `C=CC(=O)N1CCN(c2nc(=O)n(-c3c(C)ccnc3C(C)C)c3nc(-c4c(O)cccc4F)c(F)cc23)C(C)C1` (centres undefined), for which the viability, T/C (compound alone 0.1 µM) is reported as 94, 99.7, 101, 107, 92.6, 134, 86.9, 73.8, 98.8, 96.3, 89.3, 97.7, 97.4, 88.4, 99.6, 105, 88.3%; the viability, T/C (compound alone 0.316 µM) is 88.3, 87.5, 91.3 (2×), 101, 90.6, 108, 89.6, 97.3, 95.1, 81.4, 107, 111, 96.9, 87.2, 109, 104%; the viability, T/C (compound alone 1 µM) is 75.9, 103, 102, 100 (2×), 74.3, 126, 109, 95, 78.9, 86.1, 89.8, 108, 79.7, 87.7, 106, 105%; the viability, T/C (compound alone 3.16 µM) is on record as 84.7, 76.5, 79.7, 81.7, 94.2, 103, 74.3, 91.3, 94, 95.5, 93, 92.8, 90.1, 88.2, 75.6, 84.4, 92.2%; the viability, T/C (compound alone 10 µM) is 72.3, 66.6, 71.5, 68.2, 82.3, 76.4, 68.6, 82.8, 73.6, 96.8, 66.7, 66.5, 82, 65.7, 69.9, 59.6, 76%.

As usually defined, the IC50 is the point on the concentration scale where inhibition reaches its midpoint. For the molecule `CNCc1ccccc1-c1csc(C(C)Nc2nc(C)nc3cc(OC)c(OC)cc23)c1` (centres undefined), the viability, T/C (compound alone 0.1 µM) is 102, 92.3, 73.8, 85.5, 100 (2×), 99.6, 94.1, 95, 108, 94.9, 114, 88.4, 111, 106, 97.7, 104%; the viability, T/C (compound alone 0.316 µM) was 94.8 (2×), 88.2, 87.5, 92.7, 78.5, 95.8, 87, 89.4, 90.8, 89.9, 86.2, 109, 83.5, 94.5, 86.9, 88.8%; the viability, T/C (compound alone 1 µM) is on record as 111, 104, 85.8, 86.6, 71.1, 84, 65.9, 59.6, 44.1, 66.2, 62, 93.5, 81.5, 73.3, 89.5, 87.3, 73.2%; the viability, T/C (compound alone 3.16 µM) is 99.1, 74.9, 4.66, 3.91, 0.7, 2.24, 1.03 (2×), 0.4, 0.68, 0.66, 0.65, 0.64, 1.93, 0.9, 4.3, 3.69%. Besides, the IC50 (run of 07/12/2021) was 5.85, 4.64, 1.62, 1.66, 1.42, 1.61 µM.

Take `CC(=O)Nc1cccc(-n2c(=O)n(C3CC3)c(=O)c3c(Nc4ccc(I)cc4F)n(C)c(=O)c(C)c32)c1`: the viability, T/C (compound alone 0.001 µM) is on record as 73, 69.6, 78.9, 98.9, 79.5%.

On to `Cn1nccc1Nc1nccc(-c2cc3c(s2)C(C)(C)N(CCN2CCOCC2)C3=O)n1`, for which the IC50 is given as 8.4 µM, > 10 µM, 8.89 µM, 8.93 µM, 5.61 µM. Moreover, the viability, T/C (compound alone 0.0316 µM) was 95.2, 111 (2×), 122, 86.7%.

On to `CC1COCCN1c1cc(-c2ccnn2C)c2ccnc(-c3ccn[nH]3)c2n1` (centres undefined), for which the viability, T/C (compound alone 0.0316 µM) is given as 91.3, 103, 112, 78.7, 111%; the viability, T/C (compound alone 0.316 µM) is listed as 80.8, 72.3, 93.7, 68, 82.8%; the viability, T/C (compound alone 1 µM) is given as 76.2, 67.7, 68.7, 43.8, 78.5%; the viability, T/C (compound alone 3.16 µM) is reported as 63.3, 53.2, 66.2, 18.2, 52.2%.

Take `COc1cc2nccc(Oc3ccc(NC(=O)C4(C(=O)Nc5ccc(F)cc5)CC4)cc3)c2cc1OC`: the viability, T/C reads like this: (compound alone 0.316 µM) 89.6, 100, 79.2, 113, 77.7%; (compound alone 1 µM) 91.6, 101, 84, 113, 79.6%; (compound alone 10 µM) 112, 96.9, 96.2, 104, 83.6%.
